# Measurements from the supplement of paper PMC8728848.
# This is one part of the list.
# B1: T7P4 (Tuber borchii) (protein)
# chain: GSHIGPYMSFYASSEDVRTIEEGGRTWLVGRARRADGSWQDIKLDLDNIIGNRDGHLTWGEQNFTQSASDIRFNFEGSNVPVLRAKLRNAAGGEQESDLNLGERLTNNNGDLVFN
# Columns and labels:
# Assay in all cases: glycan array binding signal (z-score within array); higher = stronger binding
# Conditions in all cases: glycan notation: IUPAC condensed, linker removed
# [1] = target: GlcNAc(b1-3)[GlcNAc(b1-6)]GalNAc
# How it was run: (§1)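 The binding signal is a Z-score computed within each array and averaged over linkers. Arrays of the same protein sequence at different concentrations or buffers were also averaged together. Data originate from 3228 arrays in the Consortium for Functional Glycomics database, kept only where the protein sequence was available.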
# [2] = target: GlcNAc(b1-3)[GlcNAc(b1-6)]GlcNAc
# How it was run: as §1
# [3] = target: GlcNAc(b1-3)[GlcNAc(b1-6)]GlcNAc(b1-4)GlcNAc
# How it was run: as §1
# [4] = target: GlcNAc(b1-4)Gal(b1-4)GlcNAc
# How it was run: as §1
# [5] = target: GlcNAc(b1-4)GlcNAc(b1-4)GlcNAc
# How it was run: as §1
# [6] = target: GlcNAc(b1-4)GlcNAc(b1-4)GlcNAc(b1-4)GlcNAc(b1-4)GlcNAc
# How it was run: as §1
# [7] = target: GlcNAc(b1-4)GlcNAc(b1-4)GlcNAc(b1-4)GlcNAc(b1-4)GlcNAc(b1-4)GlcNAc
# How it was run: as §1
# [8] = target: GlcNAc(b1-4)[GlcNAc(b1-6)]GalNAc
# How it was run: as §1
# [9] = target: GlcNAc(b1-6)Gal(b1-4)GlcNAc
# How it was run: as §1
# GlcNAc(b1-6)GalNAc = target: GlcNAc(b1-6)GalNAc
# How it was run: as §1
# Kdn(a2-3)Gal(b1-3)GlcNAc = target: Kdn(a2-3)Gal(b1-3)GlcNAc
# How it was run: as §1
# Kdn(a2-3)Gal(b1-4)GlcNAc = target: Kdn(a2-3)Gal(b1-4)GlcNAc
# How it was run: as §1
# [10] = target: Man(a1-2)Man(a1-2)Man(a1-3)Man
# How it was run: as §1
# [11] = target: Man(a1-2)Man(a1-2)Man(a1-3)[Man(a1-2)Man(a1-3)[Man(a1-2)Man(a1-6)]Man(a1-6)]Man(b1-4)GlcNAc(b1-4)GlcNAc
# How it was run: as §1
# [12] = target: Man(a1-2)Man(a1-2)Man(a1-3)[Man(a1-2)Man(a1-6)[Man(a1-3)]Man(a1-6)]Man(b1-4)GlcNAc(b1-4)GlcNAc
# How it was run: as §1
# [13] = target: Man(a1-2)Man(a1-2)Man(a1-6)[Man(a1-3)]Man
# How it was run: as §1
# Man(a1-2)Man(a1-3)Man = target: Man(a1-2)Man(a1-3)Man
# How it was run: as §1
# [14] = target: Man(a1-2)Man(a1-3)[Man(a1-2)Man(a1-6)]Man
# How it was run: as §1
# [15] = target: Man(a1-2)Man(a1-3)[Man(a1-2)Man(a1-6)]Man(a1-6)[Man(a1-2)Man(a1-2)Man(a1-3)]Man(b1-4)GlcNAc(b1-4)GlcNAc
# How it was run: as §1
# [16] = target: Man(a1-2)Man(a1-3)[Man(a1-3)[Man(a1-6)]Man(a1-6)]Man(b1-4)GlcNAc(b1-4)GlcNAc
# How it was run: as §1
# [17] = target: Man(a1-2)Man(a1-3)[Man(a1-6)]Man(a1-6)[Man(a1-2)Man(a1-3)]Man(b1-4)GlcNAc(b1-4)GlcNAc
# How it was run: as §1
# [18] = target: Man(a1-2)Man(a1-6)[Man(a1-3)]Man(a1-6)[Man(a1-2)Man(a1-2)Man(a1-3)]Man(b1-4)GlcNAc(b1-4)GlcNAc
# How it was run: as §1
# Man(a1-3)[Man(a1-6)]Man = target: Man(a1-3)[Man(a1-6)]Man
# How it was run: as §1
# [19] = target: Man(a1-3)[Man(a1-6)]Man(a1-6)[Man(a1-2)Man(a1-3)]Man(b1-4)GlcNAc(b1-4)GlcNAc
# How it was run: as §1
# [20] = target: Man(a1-3)[Man(a1-6)]Man(a1-6)[Man(a1-3)]Man(b1-4)GlcNAc(b1-4)GlcNAc
# How it was run: as §1
# [21] = target: Man(a1-3)[Man(a1-6)]Man(b1-4)GlcNAc(b1-4)GlcNAc
# How it was run: as §1
# Man(b1-4)GlcNAc = target: Man(b1-4)GlcNAc
# How it was run: as §1
# Neu5Ac(a2-3)Gal = target: Neu5Ac(a2-3)Gal
# How it was run: as §1
# [22] = target: Neu5Ac(a2-3)Gal(b1-3)GalNAc
# How it was run: as §1
# [23] = target: Neu5Ac(a2-3)Gal(b1-3)GalNAc(b1-3)Gal(a1-4)Gal(b1-4)Glc
# How it was run: as §1
# [24] = target: Neu5Ac(a2-3)Gal(b1-3)GalNAc(b1-3)Gal(b1-4)GlcNAc
# How it was run: as §1
# [25] = target: Neu5Ac(a2-3)Gal(b1-3)GalNAc(b1-4)[Neu5Ac(a2-3)]Gal(b1-4)Glc
# How it was run: as §1
# [26] = target: Neu5Ac(a2-3)Gal(b1-3)GalNAc6S
# How it was run: as §1
# [27] = target: Neu5Ac(a2-3)Gal(b1-3)GlcNAc
# How it was run: as §1
# [28] = target: Neu5Ac(a2-3)Gal(b1-3)GlcNAc(b1-3)Gal(b1-4)GlcNAc
# How it was run: as §1
# [29] = target: Neu5Ac(a2-3)Gal(b1-3)GlcNAc6S
# How it was run: as §1
# [30] = target: Neu5Ac(a2-3)Gal(b1-3)[Fuc(a1-4)]GlcNAc
# How it was run: as §1
# [31] = target: Neu5Ac(a2-3)Gal(b1-3)[Fuc(a1-4)]GlcNAc(b1-3)Gal(b1-4)[Fuc(a1-3)]GlcNAc
# How it was run: as §1
# [32] = target: Neu5Ac(a2-3)Gal(b1-3)[Neu5Ac(a2-3)Gal(b1-4)]GlcNAc
# How it was run: as §1
# [33] = target: Neu5Ac(a2-3)Gal(b1-3)[Neu5Ac(a2-6)]GalNAc
# How it was run: as §1
# Neu5Ac(a2-3)Gal(b1-4)Glc = target: Neu5Ac(a2-3)Gal(b1-4)Glc
# How it was run: as §1
# [34] = target: Neu5Ac(a2-3)Gal(b1-4)GlcNAc
# How it was run: as §1
# [35] = target: Neu5Ac(a2-3)Gal(b1-4)GlcNAc(b1-2)Man(a1-3)[Neu5Ac(a2-3)Gal(b1-4)GlcNAc(b1-2)Man(a1-6)]Man(b1-4)GlcNAc(b1-4)GlcNAc
# How it was run: as §1
# [36] = target: Neu5Ac(a2-3)Gal(b1-4)GlcNAc(b1-3)Gal(b1-4)GlcNAc
# How it was run: as §1
# [37] = target: Neu5Ac(a2-3)Gal(b1-4)GlcNAc(b1-3)Gal(b1-4)GlcNAc(b1-3)Gal(b1-4)GlcNAc
# How it was run: as §1
binder,measurement,setting,value
B1,glycan array binding signal (z-score),[1],-0.22
same,glycan array binding signal (z-score),[2],-0.22
same,glycan array binding signal (z-score),[3],-0.209
same,glycan array binding signal (z-score),[4],-0.219
same,glycan array binding signal (z-score),[5],-0.218
same,glycan array binding signal (z-score),[6],-0.218
same,glycan array binding signal (z-score),[7],-0.225
same,glycan array binding signal (z-score),[8],-0.222
same,glycan array binding signal (z-score),[9],-0.22
same,glycan array binding signal (z-score),GlcNAc(b1-6)GalNAc,-0.223
same,glycan array binding signal (z-score),Kdn(a2-3)Gal(b1-3)GlcNAc,-0.214
same,glycan array binding signal (z-score),Kdn(a2-3)Gal(b1-4)GlcNAc,-0.219
same,glycan array binding signal (z-score),[10],0.842
same,glycan array binding signal (z-score),[11],-0.215
same,glycan array binding signal (z-score),[12],-0.178
same,glycan array binding signal (z-score),[13],0.12
same,glycan array binding signal (z-score),Man(a1-2)Man(a1-3)Man,-0.203
same,glycan array binding signal (z-score),[14],-0.212
same,glycan array binding signal (z-score),[15],-0.215
same,glycan array binding signal (z-score),[16],-0.223
same,glycan array binding signal (z-score),[17],-0.213
same,glycan array binding signal (z-score),[18],-0.179
same,glycan array binding signal (z-score),Man(a1-3)[Man(a1-6)]Man,-0.219
same,glycan array binding signal (z-score),[19],-0.223
same,glycan array binding signal (z-score),[20],-0.225
same,glycan array binding signal (z-score),[21],-0.226
same,glycan array binding signal (z-score),Man(b1-4)GlcNAc,-0.217
same,glycan array binding signal (z-score),Neu5Ac(a2-3)Gal,-0.099
same,glycan array binding signal (z-score),[22],-0.079
same,glycan array binding signal (z-score),[23],-0.113
same,glycan array binding signal (z-score),[24],-0.207
same,glycan array binding signal (z-score),[25],-0.213
same,glycan array binding signal (z-score),[26],-0.152
same,glycan array binding signal (z-score),[27],-0.152
same,glycan array binding signal (z-score),[28],-0.207
same,glycan array binding signal (z-score),[29],-0.223
same,glycan array binding signal (z-score),[30],-0.184
same,glycan array binding signal (z-score),[31],0.101
same,glycan array binding signal (z-score),[32],-0.195
same,glycan array binding signal (z-score),[33],-0.222
same,glycan array binding signal (z-score),Neu5Ac(a2-3)Gal(b1-4)Glc,1.89
same,glycan array binding signal (z-score),[34],-0.214
same,glycan array binding signal (z-score),[35],-0.218
same,glycan array binding signal (z-score),[36],-0.225
same,glycan array binding signal (z-score),[37],-0.223
